# Experimental data taken from PMC4336329 (PLoS ONE, 2015).
# The campaign covered roughly 310,000 compounds. About 2,200 (0.71%) showed an effect of 50% or more. The effect is printed as a negative number. The list shows a part of the results.
# Target: human ether-à-go-go-related gene (hERG) potassium channel (human, UniProt Q12809)
# Test: primary screen, population patch clamp on CHO cells stably expressing hERG
# Sequence of human ether-à-go-go-related gene (hERG) potassium channel (Q12809 whole entry, looked up): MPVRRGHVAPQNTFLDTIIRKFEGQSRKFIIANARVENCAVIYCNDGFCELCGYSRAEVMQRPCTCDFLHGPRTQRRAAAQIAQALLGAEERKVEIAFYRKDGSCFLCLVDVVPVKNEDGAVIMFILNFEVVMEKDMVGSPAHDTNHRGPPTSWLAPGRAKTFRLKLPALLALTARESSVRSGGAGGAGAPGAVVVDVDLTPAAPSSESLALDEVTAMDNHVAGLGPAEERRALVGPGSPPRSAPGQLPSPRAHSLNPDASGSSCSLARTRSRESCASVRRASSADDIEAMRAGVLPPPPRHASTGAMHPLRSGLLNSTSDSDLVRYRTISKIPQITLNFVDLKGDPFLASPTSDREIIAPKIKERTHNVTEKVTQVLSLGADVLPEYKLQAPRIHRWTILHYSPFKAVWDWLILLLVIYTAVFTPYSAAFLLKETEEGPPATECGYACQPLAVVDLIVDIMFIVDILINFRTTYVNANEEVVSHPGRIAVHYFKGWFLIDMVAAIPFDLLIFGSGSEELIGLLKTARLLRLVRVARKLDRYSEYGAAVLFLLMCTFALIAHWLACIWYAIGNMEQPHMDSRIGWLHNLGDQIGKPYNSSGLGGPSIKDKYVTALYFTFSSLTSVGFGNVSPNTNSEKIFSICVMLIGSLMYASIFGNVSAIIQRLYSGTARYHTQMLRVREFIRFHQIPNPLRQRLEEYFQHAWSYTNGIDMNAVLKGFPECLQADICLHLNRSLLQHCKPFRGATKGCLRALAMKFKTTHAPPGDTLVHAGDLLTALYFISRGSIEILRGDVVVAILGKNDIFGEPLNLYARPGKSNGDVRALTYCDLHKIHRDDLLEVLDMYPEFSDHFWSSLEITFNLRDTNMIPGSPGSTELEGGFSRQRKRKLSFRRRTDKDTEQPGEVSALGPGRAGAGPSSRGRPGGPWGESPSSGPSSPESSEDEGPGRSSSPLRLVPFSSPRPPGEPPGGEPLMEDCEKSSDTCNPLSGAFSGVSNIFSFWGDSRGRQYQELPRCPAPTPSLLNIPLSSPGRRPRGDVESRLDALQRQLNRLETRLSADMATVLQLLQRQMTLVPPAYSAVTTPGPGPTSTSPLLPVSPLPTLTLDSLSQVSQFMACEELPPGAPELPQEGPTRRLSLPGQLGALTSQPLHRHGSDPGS
row,SMILES,"hERG current change (%, negative = inhibition) at 1uM [%]"
1,c1ccc(-c2nc(-n3ccnc3)nc(-n3ccnc3)n2)cc1,-32.4
2,Cc1cc(C)n(CC(=O)NNC(=O)c2ccc(NC(=O)CC#N)cc2)n1,8.18
3,Cc1cc(C)nc(N(C#N)Cc2cccc([N+](=O)[O-])c2)n1,1.77
4,Cc1occc1C(=O)N=Nc1c(O)n(C)c2ccccc12,15.6
5,Cl.N=c1n(Cc2ccccc2Cl)c2ccccc2n1CC(O)c1ccco1 (centres unmarked),-11.3
6,O=c1c2cccnc2[nH]c(=S)n1CCCN1CCN(c2ccccc2F)CC1,5.53
7,COc1ccc(C2c3[nH]c4ccccc4c3CCN2Cc2ccoc2)c(F)c1 (centres unmarked),-2.79
8,COc1ccc(CN(C)CC(=O)Nc2ccc(Cl)cc2C(F)(F)F)c(OC)c1.O=C(O)C(=O)O,14.6
9,CCOc1ccccc1C1N(c2ccc(OC)cc2)C(=O)C2CCCN21 (centres unmarked),11.4
10,CCOc1cc(N2CCOCC2)c(OCC)cc1NC(=O)COC(=O)CCc1c[nH]c2ccccc12,4.41
11,COc1cccc(/C=N/NC(=O)C(=O)Nc2ccccc2OC(F)(F)C(F)F)c1,10.6
12,CN(Cc1ccc(Cl)cc1Cl)C(=O)c1cccc(S(=O)(=O)N2CCN(c3ccccc3)CC2)c1,11.2
13,COc1ccc(NC2CCCN(C(=O)CCc3cn[nH]c3)C2)cc1 (centres unmarked),-4.06
14,CC(=O)c1ccc(S(=O)(=O)NC(=O)NC2CCCCC2)cc1,7.96
15,CCOc1ccc(OCC)c(NC(=O)CN2CCN(CC)CC2)c1.Cl,-6.91
16,CCN(CC)S(=O)(=O)c1cccc(NC(=O)CSc2nc3ccccc3[nH]2)c1,-3.22
17,N=c1oc2ccccc2cc1-c1nc2ccccc2c(=O)[nH]1,13.6
18,CCCCNC(=O)c1ccc(CS(=O)(=O)c2cccc(C(F)(F)F)c2)o1,-17
19,COc1ccccc1Nc1nnc(SCC(=O)N2CCCC2)s1,-1.93
20,CC(C)CN(C(=O)COC(=O)C12CC3CC(CC(O)(C3)C1)C2)C1CCS(=O)(=O)C1 (centres unmarked),18.7
21,CCCOc1cccc(C(=O)NC(=S)Nc2ccccc2)c1,7.56
22,Cc1ccn2c(NC3CCCC3)c(-c3ccsc3)nc2c1,-3.92

row,SMILES,"hERG current change (%, negative = inhibition) at 1uM [%]"
1,COc1cc(C)ccc1OCc1cc(C(=O)N(Cc2nccn2C)C(C)C)no1,-0.982
2,Cc1onc(-c2ccccc2Cl)c1C(=O)Nc1nnc(-c2ccc(F)cc2)s1,-1.34
3,O=C(Nc1cccc(Br)c1)c1ccc(OC2CSC2)cc1,4.63
4,O=C(NCCc1c[nH]c2ccccc12)C1CCC(Cn2c(=S)[nH]c3ccccc3c2=O)CC1 (centres unmarked),-1.65
5,Cc1cc2c(c(SCC(=O)NCCc3ccccc3)n1)C(=O)OC2,-6.7
6,CCCn1nc(C(=O)N2CCc3ccccc3C2)c2ccccc2c1=O,7.02
7,CC(=O)Nc1ccc(Nc2cc(C)c3ccccc3n2)cc1,-0.226
8,COc1cc(OC)cc(C(=O)NC2CCSC2=O)c1 (centres unmarked),-9.92
9,CCOC(=O)c1cccc(NC(=O)COc2nsnc2N2CCOCC2)c1,9.05
10,c1ccc(SCc2cn3cccnc3n2)nc1,11.5
11,CC(C)(C)OC(=O)N[C@@H](Cc1ccccc1)c1nnc(SCC(=O)O)o1,13.2
12,CC(=O)NCC1CCCN(Cc2cn(-c3ccccc3)nc2-c2ccc3c(c2)OCO3)C1 (centres unmarked),24.2
13,CCC(C)(C)NC(=O)CN(C(=O)C(=O)Nc1ccc2c(c1)OCCO2)C(C)(C)CC,8.36
14,COc1cc(C(=O)OCC(=O)NCc2ccc(F)cc2)cc(NC(=O)c2cccs2)c1OC,13
15,C/C(=N\NC(=O)C(N)=O)c1ccc(O)cc1O,4.57
16,O=C(N=Nc1c(O)[nH]c2ccc(F)cc12)C1COc2ccccc2O1 (centres unmarked),7.6
17,N#CCCn1cc(C(=O)Nc2ccc([N+](=O)[O-])cc2)c(-c2ccc3c(c2)OCCO3)n1,-23.1
18,C=CCOC(=O)C1=C[C@@H](c2csc3ccccc23)[C@H](CCCO)[C@@H](OCC)O1,13.3
19,C=C(C)C1CC=C(CN2CCN(Cc3ccccc3)CC2)CC1 (centres unmarked),12.3
20,O=C1N=C(N2CCN(c3ccccc3)CC2)S/C1=C\c1ccco1,-17.8
21,CCn1c(SCC(=O)Nc2cc(C)on2)nc2c(c1=O)SC(C)C2 (centres unmarked),7.36
22,CN(CCNC(=O)c1ccc(/C=N/O)nc1)Cc1ccccc1,-2.07

row,SMILES,"hERG current change (%, negative = inhibition) at 1uM [%]"
1,COC(=O)C1=C(c2ccc(OC)c(OC)c2)C[C@@H]2CC[C@H]1N2C(=O)N1CCOCC1,10.1
2,CCOC(=O)CC(NC(=O)C(Cc1ccc(N(CCCl)CCCl)cc1)NC(C)=O)C(=O)OCC (centres unmarked),11.3
3,CCOc1ccccc1OCC(=O)Nc1ccc(OC)c(S(=O)(=O)N2CCCCC2)c1,-0.239
4,CC(C)CCNC(=O)COC(=O)c1ccc(Br)o1,7.35
5,CC1CC(=O)Nc2ccc([N+](=O)[O-])cc2N1C (centres unmarked),15.2
6,c1cnc2c(c1)ncc1cscc12,3.58
7,CCCCN1C(=O)CC(Sc2ncccc2C(=O)O)C1=O (centres unmarked),12.6
8,O=C(Nc1ccc(-c2noc(CCc3ccccc3)n2)cc1)c1ccco1,17.2
9,Cc1cc(C(=O)OCC(=O)NC(=O)NC(C)(C)C)c(C)o1,-1.99
10,Cc1ccc(C(=O)n2nc(-c3ccco3)nc2N)cc1,4.19
11,Cc1ccc(C(=O)Oc2cc(N)n(S(=O)(=O)c3ccc(C)cc3)n2)cc1,8.52
12,CCN(CC)S(=O)(=O)c1ccc(C(=O)OCC(=O)NCCN2C(=O)CSC2=O)cc1,-2.99
13,c1cncc(C(c2nnnn2C2CCCC2)N2CCN(Cc3ccc4c(c3)OCO4)CC2)c1 (centres unmarked),5.56
14,COc1cc(/C=C2\C(=O)NN(c3ccccc3)C2=O)ccc1OCC(N)=O,5.45
15,COc1ccc(C(=O)NC(=S)Nc2nc(-c3ccc(OC)c(Br)c3)cs2)cc1Br,18
16,Cc1ccc(NC(=S)NNC(=O)CCn2cc(C)cn2)cc1,3.97
17,O=C(O)CCCC(=O)Nc1cccc(C(=O)Nc2ccccc2C(=O)O)c1,14.6
18,O=C(CCCNS(=O)(=O)c1ccc(Cl)c(Cl)c1)NCCc1ccccn1,-5.53
19,Cc1ccc(C(=O)NCCCNC(=O)c2ccco2)cc1C,13.3
20,O=C(/C=C/c1cccs1)NC(=S)Nc1ccccc1,6.65
21,COc1ccc2[nH]c3c(=O)n(CCCCC(=O)N4CCCC4)c(=S)[nH]c3c2c1,0.224
22,C[C@H](NC(=O)c1nc[nH]c1C(=O)N1CCN(c2ccccc2)CC1)c1ccccc1,8.47

row,SMILES,"hERG current change (%, negative = inhibition) at 1uM [%]"
1,CC(=O)C12CCCCC1CC1C3CC(C)C4(O)CC(=O)CCC4(C)C3CCC12C (centres unmarked),17
2,O=C1C=C(c2ccc(Cl)nc2)C[C@@H](c2ccc3c(c2)OCO3)C1,-1.67
3,COCCCNc1nc2c([nH]1)c(=O)[nH]c(=O)n2C,6.34
4,CN(C)c1ccc(C(=O)N=c2sccn2C)cc1[N+](=O)[O-],8.01
5,CCOc1ccc(Nc2nc(Cc3nnc(SCC(=O)c4ccc(C)c(C)c4)o3)cs2)cc1,6.96
6,COc1ccc(CCNC(=O)CN2c3cccc4cccc(c34)S2(=O)=O)cc1OC,12.9
7,COc1ccc(COC(=O)C2=C(C)NC(=O)NC2c2ccc(O)c(OC)c2)cc1 (centres unmarked),4.81
8,O=C(CSc1nc2ccccc2[nH]1)NC1CCCc2ccccc21 (centres unmarked),8.95
9,O=C(CCSc1ccccc1)Nc1ccc(OCc2ccccc2)cc1,9.12
10,C#CCOCCOCCOCCNc1nc(N2CCN(C(=O)C([C@@H](C)CC)n3cc(C(N)Cc4ccc(O)cc4)nn3)CC2)nc(N2CCN(C(=O)[C@H](CCC(=O)O)n3cc(C(N)CC(C)C)nn3)CC2)n1.Cl (some centres unmarked),10.1
11,COc1cccc(CN(C)CC(=O)NC(=O)NCc2ccccc2)c1,4.04
12,CCN(CC)c1ccc(N=Nc2nn(C)c(C)c2[N+](=O)[O-])cc1,5.4
13,NC(=O)[C@@H]1[C@@H]2C(=O)N(c3ccc(F)cc3)C(=O)[C@@H]2[C@H]2C=Cc3ccccc3N21,10.1
14,COc1ccccc1-c1noc(-c2cccs2)n1,0.581
15,CCN1CCC(NC(=O)c2cc(OC)c(OC)cc2OC)CC1,3.22
16,Cc1cc(C)cc(NC(=O)COc2coc(CN3CCc4ccccc43)cc2=O)c1,10.2
17,COC(=O)c1ccccc1N1C(=O)C2C(C1=O)[C@H]1C=C[C@@H]2C1 (some centres unmarked),-3.85
18,O=C(CSc1nnc(Cc2ccccc2)o1)N1CCc2ccccc21,4.83
19,COCCNC(=O)CCC1CCN(Cc2ccc(-c3ccccc3)cc2)CC1,-15.5
20,Cc1ccc(N2CC(C(=O)OCC(=O)Nc3cc(C)on3)CC2=O)c(C)c1 (centres unmarked),17.3
